Results from the supplement of paper PMC4723716.
± gives the uncertainty stated by the source. Over roughly 9,900 compounds, “viability index relative to DMSO control” has its median near 1; the lowest 2% begin near 0.85. The list shows a part of the results.

test system: Plasmodium falciparum NF54 stage V gametocytes; assay: viability index relative to DMSO control (fraction); higher = less gametocyte killing; conditions: 2.5 µM, library set: Broad Institute DOS, incubation time: 72 h
Experimental: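 Broad DOS informer set and blood-stage-active DOS compounds screened in duplicate at 2.5 µM against P. falciparum NF54 stage V gametocytes with the serum-free one-step SaLSSA (1536-well): 72 h at 37 °C under low oxygen, then saponin lysis and MitoTracker Red CMXRos staining, with high-content imaging. Viability index = viable-object count divided by the plate mean of DMSO wells (0 = killed, about 1 = inactive).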

SMILES | viability index
CO[C@H](CN(C)S(=O)(=O)c1ccc(F)cc1)[C@H](C)CN(Cc1ccccc1Cl)[C@@H](C)CO | 0.978 ± 0.041
CN1C(=O)c2cc(NC(=O)Cc3cccs3)ccc2OC[C@@H]2O[C@H](CC(=O)NCC3CCCCC3)CC[C@@H]21 | 1.13 ± 0.062
C[C@@H]1CN([C@H](C)CO)C(=O)c2ccccc2-c2ccccc2CO[C@@H]1CN(C)C(=O)[C@H]1CCCN1C | 0.989 ± 0.11
CO[C@@H]1CC[C@@H]2CCN(C)C(=O)[C@@H](C)N(C)C(=O)c3cccc(C#N)c3OC[C@@H]1O2 | 1.11 ± 0.048
O=C(C1CCOCC1)N1CC(=O)N2[C@H](C1)[C@H](c1ccc(-c3cccnc3)cc1)[C@@H]2CO | 1.01 ± 0.13
COc1ccc2c3c([nH]c2c1)[C@@H](CO)N(C[C@]31CCN(CC1)S(C)(=O)=O)C(=O)NC1CCCC1 | 1.01 ± 0.02
COc1cccc(S(=O)(=O)N(C)C[C@H]2OCc3ccccc3-c3c(n(C)c4ccccc34)C(=O)N([C@@H](C)CO)C[C@@H]2C)c1 | 0.956 ± 0.013
C[C@H](CO)N1C[C@H](C)[C@@H](CN(C)C(=O)CCC(F)(F)F)OCc2cnnn2CCCC1=O | 1.02 ± 0.073
O=C(C[C@H]1CC[C@@H]2[C@H](COC[C@H](O)CN2C(=O)c2cnccn2)O1)N1CCN(c2ccccc2)CC1 | 1.024 ± 0.0091
C/C=C/c1ccccc1[C@H]1[C@@H](CO)N(c2nc(CC)cs2)[C@H]1C#N | 1.08 ± 0.065
O=C(c1ccc2c(c1)OCO2)N1C[C@@H]2N[C@H](C1)[C@@H]2c1ccc(/C=C/c2ccccc2)cc1 | 0.731 ± 0.086
CO[C@@H]1CN(C)C(=O)c2ccc(NC(C)=O)cc2OC[C@H](C)N(Cc2cccc(F)c2)C[C@H]1C | 1.03 ± 0.072
COCC(=O)Nc1ccc2c(c1)[C@@H]1C[C@H](CC(=O)N[C@H](C)c3ccccc3)O[C@@H](CO)[C@@H]1O2 | 0.982 ± 0.077
C[C@H](CO)N1C[C@H](C)[C@H](CN(C)C(=O)Nc2cccc(Cl)c2Cl)OCc2ccccc2-c2ccccc2C1=O | 0.926 ± 0.049
O=C(Cc1ccccn1)N1[C@H](CO)[C@H]2c3ccccc3NC[C@H]21 | 1.03 ± 0.022
O=C([C@H]1[C@H](CO)[C@H]2Cn3c(ccc(C4=CCCCC4)c3=O)[C@@H]1N2Cc1nccs1)N1CCCCC1 | 1.02 ± 0.018
Cc1ccc(S(=O)(=O)N(C)C[C@@H]2Oc3cc(C#CC4CCCC4)ccc3S(=O)(=O)N([C@@H](C)CO)C[C@H]2C)cc1 | 0.648 ± 0.17
Cc1cccc(-c2ccc([C@H]3[C@H]4CN(S(=O)(=O)c5ccccc5F)CCCCN4[C@H]3CO)cc2)c1 | 0.973 ± 0.094
COC(=O)C[C@@H]1CC[C@H]2[C@H](COc3ccc(NC(=O)Nc4cccc(C#N)c4)cc3C(=O)N2C)O1 | 1.11 ± 0.14
COc1ccc(NC(=O)Nc2ccc3c(c2)[C@@H]2C[C@@H](CC(=O)NCC(F)(F)F)O[C@@H](CO)[C@@H]2O3)cc1 | 1.06 ± 0.089
CO[C@@H](CN(C)Cc1cc(F)ccc1F)[C@H](C)CN(C(=O)Nc1ccc(C(F)(F)F)cc1)[C@@H](C)CO | 1.05 ± 0.018
C[C@H]1CN([C@@H](C)CO)C(=O)Cc2cc(NS(=O)(=O)c3ccc(Cl)cc3)ccc2O[C@H]1CN(C)C(=O)Nc1ccc(C(F)(F)F)cc1 | 1.03 ± 0.023
C[C@H](O)C#Cc1ccc([C@@H]2[C@H](CO)N3CCCCN(CC4CC4)C[C@@H]23)cc1 | 1.01 ± 0.041

SMILES | viability index
COc1ccc2c3c([C@H](CO)N(C)C[C@]33CN(C3)C(=O)Nc3c(C)noc3C)n(C)c2c1 | 1.05 ± 0.045
CN(C)CC(=O)N1[C@H](CO)[C@@H](c2ccccc2-c2ccccc2F)[C@@H]1C#N | 1.1 ± 0.037
C/C=C/c1ccc2c(c1)O[C@@H](CN(C)C(=O)Nc1ccc(OC)cc1)[C@@H](C)CN([C@H](C)CO)S2(=O)=O | 1.09 ± 0.065
CC(C)NC(=O)N1[C@H](C#N)[C@@H](c2ccccc2-c2ccc(F)cc2)[C@@H]1CO | 1.01 ± 0.1
O=C(C[C@H]1C[C@@H]2c3cc(NC(=O)Nc4ccccc4)ccc3O[C@@H]2[C@H](CO)O1)NCc1ccccc1 | 1.06 ± 0.03
COCCNC(=O)C[C@H]1CC[C@@H]2[C@@H](COc3ccc(NS(=O)(=O)c4ccc(Cl)cc4)cc3C(=O)N2C)O1 | 1.07 ± 0.082
CO[C@@H]1CN(C)C(=O)c2ccc(NC(=O)c3ccc4c(c3)OCO4)cc2OC[C@@H](C)N(Cc2ccc3c(c2)OCO3)C[C@H]1C | 0.926 ± 0.011
COc1ccc2c3c([nH]c2c1)[C@@H](CO)N(C[C@]31CCN(CC1)C(=O)c1cnccn1)C(=O)NC(C)C | 1.05 ± 0.023
OC[C@@H]1[C@H](c2ccc(-c3cccc(F)c3)cc2)[C@@H]2CN(Cc3cncnc3)CCCCN12 | 1.06 ± 0.047
CCC(=O)N1CC(=O)N2[C@H](CO)[C@@H](c3ccc(C#CCC(C)C)cc3)[C@@H]2C1 | 0.992 ± 0.11
CCCC(=O)N1C[C@@]2(C1)CN([C@H](CO)c1[nH]c3cc(OC)ccc3c21)S(=O)(=O)c1ccc(C)cc1 | 0.946 ± 0.074
O=C([C@@H]1[C@@H](CO)[C@@H]2Cn3c(cccc3=O)[C@H]1N2S(=O)(=O)c1ccccc1F)N1CCCCC1 | 1.03 ± 0.042
CC(C)[C@@H]1C(=O)N[C@H](c2cccc(Cl)c2)C/C=C/C[C@@H](C)Oc2ccccc2C(=O)N1C.CC(C)[C@@H]1C(=O)N[C@H](c2cccc(Cl)c2)C/C=C\C[C@@H](C)Oc2ccccc2C(=O)N1C | 1.06 ± 0.06
COc1ccc(S(=O)(=O)Nc2ccc3c(c2)C(=O)N([C@@H](C)CO)C[C@H](C)[C@@H](CN(C)Cc2ccc(C(F)(F)F)cc2)OCCCC[C@@H](C)O3)cc1 | 0.829 ± 0.0097
COCC#Cc1ccc([C@@H]2[C@@H](CO)N3C(=O)CN(C(=O)Nc4ccccc4F)C[C@H]23)cc1 | 1.062 ± 0.0012
CO[C@@H](CN(C)C(=O)c1cnccn1)[C@H](C)CN([C@@H](C)CO)S(=O)(=O)c1ccccc1 | 0.94 ± 0.058
CCCC#Cc1ccc2c(c1)[C@@H]1[C@@H](CCN1S(=O)(=O)c1cccc(F)c1)[C@@H](CO)N2C | 1.12 ± 0.051
CC(C)COC(=O)N(C)C[C@@H]1OCc2ccccc2-c2ccccc2C(=O)N([C@@H](C)CO)C[C@@H]1C | 1.09 ± 0.11
O=C(C[C@@H]1CC[C@H](NC(=O)C2CC2)[C@@H](CO)O1)Nc1ccccc1 | 0.983 ± 0.098
CNC[C@H]1Oc2ncc(-c3cncnc3)cc2C(=O)N([C@@H](C)CO)C[C@H]1C | 1.01 ± 0.07
CN(C)C(=O)c1cccc(-c2ccc([C@@H]3[C@H](CO)N4C(=O)CN(C(=O)C5CCC5)C[C@@H]34)cc2)c1 | 1.03 ± 0.12
N#C[C@@H]1[C@H](c2ccccc2-c2cccc(F)c2)[C@@H](CO)N1S(=O)(=O)c1cccc(F)c1 | 1.15 ± 0.081
CN1C(=O)c2cc(NS(=O)(=O)CC(F)(F)F)ccc2OC[C@H]2O[C@@H](CC(=O)NCc3ccc(Cl)c(Cl)c3)CC[C@@H]21 | 1.06 ± 0.11

SMILES | viability index
CCCC#Cc1ccc([C@H]2[C@H](CO)N3C(=O)CN(C(=O)Nc4cccc(F)c4)C[C@@H]23)cc1 | 1.03 ± 0.042
O=C(C[C@@H]1CC[C@H]2[C@@H](COC[C@@H](O)CN2CC2CCOCC2)O1)NCc1ccc(Cl)cc1 | 1.03 ± 0.047
CO[C@@H]1CN(C)C(=O)c2ccc(NC(=O)NC(C)C)cc2OC[C@@H](C)N(Cc2ccc(-c3ccccn3)cc2)C[C@@H]1C | 1.08 ± 0.019
CNC[C@H]1Oc2ncc(-c3cncnc3)cc2C(=O)N([C@H](C)CO)C[C@@H]1C | 0.979 ± 0.074
COc1ccc2c3c([nH]c2c1)[C@@H](CO)N(Cc1cc(F)ccc1F)C[C@]31CCN(CC1)C(=O)CN(C)C | 0.945 ± 0.049
CO[C@@H](CN(C)Cc1ccc2c(c1)OCO2)[C@@H](C)CN(C(=O)c1ccccc1)[C@H](C)CO | 1.01 ± 0.042
COc1ccc(S(=O)(=O)Nc2ccc3c(c2)CC(=O)N([C@H](C)CO)C[C@H](C)[C@H](CN(C)Cc2ccc(C(=O)Nc4ccccc4N)cc2)O3)cc1 | 0.766 ± 0.044
CCS(=O)(=O)N1[C@H](CO)[C@@H](c2ccc(-c3cccc(F)c3)cc2)[C@@H]1C#N | 1.13 ± 0.033
CN1C(=O)c2cc(NC(=O)c3cccc(Cl)c3)ccc2OC[C@@H]2O[C@H](CC(=O)NC3CCCCC3)CC[C@H]21 | 1.08 ± 0.031
CCCC(=O)Nc1ccc2c(c1)OC[C@H](C)N(C(=O)c1cccnc1)C[C@@H](C)[C@H](OC)CN(C)C2=O | 1.05 ± 0.014
COCC#Cc1ccc([C@@H]2[C@H]3CN(C(=O)NC4CCCC4)CCCCN3[C@H]2CO)cc1 | 1.02 ± 0.023
COc1ccc(-c2ccc3n(c2=O)C[C@@H]2[C@@H](CO)[C@H](C(=O)N4CCOCC4)N[C@H]32)cc1 | 1.07 ± 0.054
CCCC(=O)N1C[C@]2(CN(C2)C(=O)C2CC2)c2c([C@@H]1CO)n(C)c1cc(OC)ccc21 | 1.06 ± 0.042
C[C@@H]1CCCCO[C@H](CN(C)C(=O)CCCN(C)C)[C@@H](C)CN([C@@H](C)CO)C(=O)c2cc(NC(=O)Nc3ccc4c(c3)OCO4)ccc2O1 | 1.08 ± 0.056
O=C(C[C@H]1CC[C@H](NS(=O)(=O)c2ccccc2F)[C@@H](CO)O1)NCCCN1CCOCC1 | 0.87 ± 0.14
OC[C@H]1[C@@H](c2ccc(-c3cccc(F)c3)cc2)[C@H]2CN(Cc3cncnc3)CCCCN21 | 1.05 ± 0.071
CN1c2ccc(-c3ccc(C#N)cc3)cc2[C@@H]2[C@@H](CCN2S(=O)(=O)c2ccc(F)cc2)[C@@H]1CO | 1.086 ± 0.0029
C[C@H](CO)N1C[C@H](C)[C@H](CN(C)C(=O)Nc2ccnc(N3CCOCC3)c2)OCc2ccccc2-c2ccccc2C1=O | 0.96 ± 0.11
CO[C@@H]1CN(C)C(=O)c2ccc(NC(=O)NC(C)C)cc2OC[C@H](C)N(Cc2ccc(-c3ccccn3)cc2)C[C@@H]1C | 1.11 ± 0.095
O=C(C[C@@H]1CC[C@@H]2[C@H](COC[C@H](O)CN2C(=O)Nc2ccc(F)cc2)O1)NC1CCC1 | 1.1 ± 0.012
C[C@@H]1CCCCO[C@H](CN(C)Cc2ccc3c(c2)OCO3)[C@H](C)CN([C@@H](C)CO)C(=O)c2cc(NS(=O)(=O)c3cn(C)cn3)ccc2O1 | 1.052 ± 0.0054
O=C(O)C[C@H]1CC[C@H]2[C@@H](COC[C@H](O)CN2S(=O)(=O)c2ccc(Oc3ccccc3)cc2)O1 | 1.08 ± 0.056
